Experimental data as given in US6172038A, “Antipathogenic peptides and compositions comprising them” (priority 1996, dated 2001).
Where “and” joins values, the source holds several entries; their conditions need not be identical. Equal values may be shown once. At least one peptide structure holds a part that was inferred or is arguable (an end, a ring closure or a residue). *1 amine or outer side, *2 acyl side, *3 side chain or, on linkers, in order; H or OH if unused. Where a SMILES comes first, the peptide text is derived from it. [ ]: non-standard residue; d: D form. Ethylenediamine = C(CN[*:2])N[*:1]

How the values were obtained:
Escherichia coli D21 = assay: Antibacterial activity (MIC), growth inhibition in 96-well plates; assay type: cell-based; details: 100% inhibition of growth after 18-20 h at 37° C.
[1] = tested on: Acinetobacter calcoaceticus Ac11; assay: as above; assay type: cell-based; details: 100% inhibition of growth after 18-20 h at 37° C.
Bacillus megaterium Bm11 = assay: as above; assay type: cell-based; details: 100% inhibition of growth after 18-20 h at 37° C.
[2] = tested on: Micrococcus luteus ATCC 9341; assay: as above; assay type: cell-based; details: 100% inhibition of growth after 18-20 h at 37° C.
[3] = tested on: Bacillus subtilis ATCC 6051; assay: as above; assay type: cell-based; details: 100% inhibition of growth after 18-20 h at 37° C.
[4] = CD spectroscopy, fractional helicity; assay type: physicochemical; details: CD in 40% TFE
[5] = Membrane permeation, diffusion potential assay; details: negatively charged versus zwitterionic phospholipids
E. coli = assay: Visualization of bacterial lysis by electron microscopy; assay type: cell-based, Escherichia coli; details: peptide at the MIC
[6] = tested on: Candida albicans (IP886-65); assay: Antifungal activity (MIC); assay type: cell-based; details: 100% inhibition of growth after 48 h at 30° C.
[7] = tested on: Cryptococcus neoformans (IP960-67); assay: Antifungal activity (MIC); assay type: cell-based; details: 100% inhibition of growth after 48 h at 30° C.
[8] = tested on: Salmonella typhimurium LT2; assay: Antibacterial activity (MIC), growth inhibition in 96-well plates; assay type: cell-based; details: 100% inhibition of growth after 18-20 h at 37° C.
[9] = tested on: Pseudomonas aeruginosa ATCC 27853; assay: Antibacterial activity (MIC), growth inhibition in 96-well plates; also synergy with tetracycline; assay type: cell-based; details: 100% inhibition of growth after 18-20 h at 37° C.
Procedure: (viii) Antibacterial activity of the peptides.
Antibacterial activity of the mixtures was determined as described in Experimental procedures, section (xii).

[10] = Membrane permeation, diffusion potential assay; details: zwitterionic vesicles
Procedure: (xi) Membrane permeation induced by the peptides. Membrane permeation was assessed utilizing the diffusion potential assay (Loew et al., 1983; Sims et al., 1974) as previously described (Shai et al., 1991). In a typical experiment, in a glass tube, 4 μl of a liposomes suspension (final phospholipids concentration of 33 μM), in a K^+ containing buffer (50 mM K2 SO4, 25 mM HEPES-SO4^-2, pH 6.8), was diluted in 1 ml of an isotonic K^+ free buffer (50 mM Na2 SO4, 25 mM HEPES-SO4^-2, pH 6.8), and the fluorescent, potential-sensitive dye diS-C2 -5 was then added. Valinomycin (1 μl of 10^-7 M) was added to the suspension in order to slowly create a negative diffusion potential inside the vesicles, which led to a quenching of the dye's fluorescence. Once the fluorescence had stabilized, which took 3-10 minutes, peptides were added. The subsequent dissipation of the diffusion potential, as reflected by an increase in fluorescence, was monitored on a Perkin Elmer LS-50B spectrofluorometer, with the excitation set at 620 nm, the emission at 670 nm, and the gain adjusted to 100%. The percentage of fluorescence recovery, Ft, was defined as:
where I0 =the initial fluorescence, If =the total fluorescence observed before the addition of valinomycin, and It =the fluorescence observed after adding the peptide at time t.

[11] = Membrane permeation, diffusion potential assay; details: compared to peptides 22-24

Row | SMILES | Minimal Inhibitory Concentration E. coli (D21) (Escherichia coli D21) [µM] | Minimal Inhibitory Concentration A. calcoaceticus (Ac11) [1] | Minimal Inhibitory Concentration B. megaterium (Bm11) (Bacillus megaterium Bm11) [µM] | Minimal Inhibitory Concentration M. luteus (ATCC 9341) [2] [µM] | Minimal Inhibitory Concentration B. subtilis (ATCC 6051) [3] [µM] | α-helix content [4] [%] | membrane permeating activity with PC/PS vesicles [5] | bacterial lysis seen by electron microscopy (E. coli) | Minimal Inhibitory Concentration Candida albicans (IP886-65) [6] [µM] | Minimal Inhibitory Concentration Cryptococcus neoformans (IP960-67) [7] [µM] | Minimal Inhibitory Concentration S. typhimurium (LT2) [8] [µM] | Minimal Inhibitory Concentration P. aeruginosa (ATCC 27853) [9] [µM] | membrane permeating activity with PC vesicles [10] | ability to permeate PE/PG vesicles [11]
1 | CC[C@H](C)[C@H](NC(=O)[C@H](CCCCN)NC(=O)[C@H]1CCCN1C(=O)[C@@H](NC(=O)[C@H](CC(C)C)NC(=O)[C@H](C)NC(=O)[C@H](Cc1ccccc1)NC(=O)[C@H](Cc1ccccc1)NC(=O)CN)[C@@H](C)CC)C(=O)N[C@H](C(=O)N[C@@H](CO)C(=O)N[C@@H](CO)C(=O)N1CCC[C@H]1C(=O)N[C@@H](CC(C)C)C(=O)N[C@@H](Cc1ccccc1)C(=O)N[C@@H](CCCCN)C(=O)N[C@H](C(=O)N[C@H](CC(C)C)C(=O)N[C@H](CC(C)C)C(=O)N[C@@H](CO)C(=O)N[C@@H](C)C(=O)N[C@H](C(=O)NCC(=O)N[C@@H](CO)C(=O)N[C@@H](C)C(=O)N[C@@H](CC(C)C)C(=O)N[C@@H](CO)C(=O)N[C@@H](CO)C(=O)N[C@@H](CO)C(=O)NCC(=O)NCC(=O)N[C@@H](CCC(N)=O)C(=O)N[C@@H](CCC(=O)NCCN)C(=O)NCCN)C(C)C)[C@@H](C)O)[C@@H](C)CC [Peptide 1] | 6 | 6 µM | 0.9 | 12.5 | 3 | 4 | permeates negatively charged phospholipids significantly better than zwitterionic phospholipids | lysed the bacteria completely | 35 | 50 |  |  |  | 
2 | CC[C@H](C)[C@H](NC(=O)[C@H](CCCCN)NC(=O)[C@H]1CCCN1C(=O)[C@@H](NC(=O)[C@H](CC(C)C)NC(=O)[C@H](C)NC(=O)[C@H](Cc1ccccc1)NC(=O)[C@H](Cc1ccccc1)NC(=O)CNC(=O)[C@H](CCCCN)NC(=O)[C@@H](N)CCCCN)[C@@H](C)CC)C(=O)N[C@H](C(=O)N[C@@H](CO)C(=O)N[C@@H](CO)C(=O)N1CCC[C@H]1C(=O)N[C@@H](CC(C)C)C(=O)N[C@@H](Cc1ccccc1)C(=O)N[C@@H](CCCCN)C(=O)N[C@H](C(=O)N[C@H](CC(C)C)C(=O)N[C@H](CC(C)C)C(=O)N[C@@H](CO)C(=O)N[C@@H](C)C(=O)N[C@H](C(=O)O)C(C)C)[C@@H](C)O)[C@@H](C)CC [Peptide 6] | 15 | 6 µM | 6 |  |  |  |  |  |  |  | 120 | 60 |  | 
3 | CC[C@H](C)[C@H](NC(=O)[C@H](CCCCN)NC(=O)[C@H]1CCCN1C(=O)[C@@H](NC(=O)[C@H](CC(C)C)NC(=O)[C@H](C)NC(=O)[C@H](Cc1ccccc1)NC(=O)[C@H](Cc1ccccc1)NC(=O)CN)[C@@H](C)CC)C(=O)N[C@H](C(=O)N[C@@H](CO)C(=O)NCCN)[C@@H](C)CC [Peptide 7] (H-GFFALI[dP]KIIS-Ethylenediamine) | > 120 | > 120 µM | 30 |  |  |  |  |  |  |  | > 120 | > 120 |  | 
4 | CC[C@H](C)[C@H](NC(=O)[C@H](CCCCN)NC(=O)[C@@H]1CCCN1C(=O)[C@@H](NC(=O)[C@H](CC(C)C)NC(=O)[C@H](C)NC(=O)[C@H](Cc1ccccc1)NC(=O)[C@H](Cc1ccccc1)NC(=O)CN)[C@@H](C)CC)C(=O)N[C@H](C(=O)N[C@@H](CO)C(=O)N[C@@H](CO)C(=O)N1CCC[C@H]1C(=O)N[C@@H](CC(C)C)C(=O)N[C@@H](Cc1ccccc1)C(=O)N[C@@H](CCCCN)C(=O)N[C@H](C(=O)N[C@@H](CC(C)C)C(=O)N[C@@H](CC(C)C)C(=O)N[C@@H](CO)C(=O)N[C@@H](C)C(=O)N[C@H](C(=O)NCC(=O)N[C@@H](CO)C(=O)N[C@@H](C)C(=O)N[C@@H](CC(C)C)C(=O)N[C@@H](CO)C(=O)N[C@@H](CO)C(=O)N[C@@H](CO)C(=O)NCC(=O)NCC(=O)N[C@@H](CCC(N)=O)C(=O)N[C@@H](CCC(=O)NCCN)C(=O)NCCN)C(C)C)[C@@H](C)O)[C@@H](C)CC [Peptide 8, TApar] | 3 | 3 µM | 0.8 | 5 | 1.5 | 50 |  |  |  |  | 15 | 8 |  | 
5 | CC[C@H](C)[C@H](NC(=O)[C@H](CCCCN)NC(=O)[C@@H]1CCCN1C(=O)[C@@H](NC(=O)[C@H](CC(C)C)NC(=O)[C@H](C)NC(=O)[C@H](Cc1ccccc1)NC(=O)[C@H](Cc1ccccc1)NC(=O)CN)[C@@H](C)CC)C(=O)N[C@H](C(=O)N[C@@H](CO)C(=O)N[C@@H](CO)C(=O)N1CCC[C@H]1C(=O)N[C@@H](CC(C)C)C(=O)N[C@@H](Cc1ccccc1)C(=O)N[C@@H](CCCCN)C(=O)N[C@H](C(=O)N[C@H](CC(C)C)C(=O)N[C@H](CC(C)C)C(=O)N[C@@H](CO)C(=O)N[C@@H](C)C(=O)N[C@H](C(=O)NCC(=O)N[C@@H](CO)C(=O)N[C@@H](C)C(=O)N[C@@H](CC(C)C)C(=O)N[C@@H](CO)C(=O)N[C@@H](CO)C(=O)N[C@@H](CO)C(=O)NCC(=O)NCC(=O)N[C@@H](CCC(N)=O)C(=O)N[C@@H](CCC(=O)NCCN)C(=O)NCCN)C(C)C)[C@@H](C)O)[C@@H](C)CC [Peptide 14, [D]L^18 L^19 -TApar] | 3.5 | 1.5 µM and 2.5 µM | 0.6 | 2.5 | 1.5 | 15 |  |  |  |  |  |  |  | 
6 | CC[C@@H](C)[C@@H](NC(=O)[C@H](CC(C)C)NC(=O)[C@H](C)NC(=O)[C@@H]1CCCN1C(=O)[C@H](CC(C)C)NC(=O)CNC(=O)[C@@H](NC(=O)[C@@H](NC(=O)[C@H](CC(C)C)NC(=O)[C@H](NC(=O)[C@H](CCCCN)NC(=O)[C@H](CC(C)C)NC(=O)[C@H](NC(=O)[C@H](C)NC(=O)CNC(=O)[C@@H](NC(=O)CN)[C@@H](C)CC)C(C)C)C(C)C)[C@@H](C)O)[C@@H](C)O)C(=O)N[C@@H](CO)C(=O)N[C@@H](Cc1c[nH]c2ccccc12)C(=O)N[C@H](C(=O)N[C@H](CCCCN)C(=O)N[C@@H](CCCNC(=N)N)C(=O)N[C@@H](CCCCN)C(=O)N[C@@H](CCCNC(=N)N)C(=O)N[C@@H](CCC(N)=O)C(=O)N[C@@H](CCC(N)=O)C(=O)O)[C@@H](C)CC [Peptide 19] | 18 | 18 µM | 1.2 | 50 | 8 | 7 |  |  |  |  |  |  |  | 
7 | CC(C)C[C@H](NC(=O)[C@H](CC(C)C)NC(=O)[C@@H](CC(C)C)NC(=O)[C@@H](CC(C)C)NC(=O)[C@H](CC(C)C)NC(=O)[C@@H](N)CCCCN)C(=O)N[C@@H](CCCCN)C(=O)N[C@H](CC(C)C)C(=O)N[C@@H](CC(C)C)C(=O)N[C@H](CC(C)C)C(=O)N[C@@H](CC(C)C)C(=O)N[C@@H](CCCCN)C(N)=O [Peptide 22] | 9 | 20 µM | 0.7 |  | 1.1 |  |  |  |  |  |  | 125 | permeated the zwitterionic phospholipid vesicles | 
8 | CC(C)C[C@H](NC(=O)[C@H](CCCCN)NC(=O)[C@@H](CC(C)C)NC(=O)[C@@H](CC(C)C)NC(=O)[C@H](CCCCN)NC(=O)[C@@H](N)CCCCN)C(=O)N[C@@H](CCCCN)C(=O)N[C@H](CC(C)C)C(=O)N[C@@H](CCCCN)C(=O)N[C@H](CC(C)C)C(=O)N[C@@H](CCCCN)C(=O)N[C@@H](CCCCN)C(N)=O [Peptide 25] | 80 | 200 µM | 1 |  | 100 |  |  |  |  |  |  | > 200 |  | significantly decreased ability to permeate PE/PG vesicles
